Experimental findings from publication PMC4336329 (PLoS ONE, 2015) are described below.

Molecules are shown by their SMILES. Screen size: about 310,000 compounds; about 2,200 (0.71%) showed an effect of 50% or more. The effect is printed as a negative number. The list shows a part of the results.

Chain of human ether-à-go-go-related gene (hERG) potassium channel (Q12809 whole entry, looked up): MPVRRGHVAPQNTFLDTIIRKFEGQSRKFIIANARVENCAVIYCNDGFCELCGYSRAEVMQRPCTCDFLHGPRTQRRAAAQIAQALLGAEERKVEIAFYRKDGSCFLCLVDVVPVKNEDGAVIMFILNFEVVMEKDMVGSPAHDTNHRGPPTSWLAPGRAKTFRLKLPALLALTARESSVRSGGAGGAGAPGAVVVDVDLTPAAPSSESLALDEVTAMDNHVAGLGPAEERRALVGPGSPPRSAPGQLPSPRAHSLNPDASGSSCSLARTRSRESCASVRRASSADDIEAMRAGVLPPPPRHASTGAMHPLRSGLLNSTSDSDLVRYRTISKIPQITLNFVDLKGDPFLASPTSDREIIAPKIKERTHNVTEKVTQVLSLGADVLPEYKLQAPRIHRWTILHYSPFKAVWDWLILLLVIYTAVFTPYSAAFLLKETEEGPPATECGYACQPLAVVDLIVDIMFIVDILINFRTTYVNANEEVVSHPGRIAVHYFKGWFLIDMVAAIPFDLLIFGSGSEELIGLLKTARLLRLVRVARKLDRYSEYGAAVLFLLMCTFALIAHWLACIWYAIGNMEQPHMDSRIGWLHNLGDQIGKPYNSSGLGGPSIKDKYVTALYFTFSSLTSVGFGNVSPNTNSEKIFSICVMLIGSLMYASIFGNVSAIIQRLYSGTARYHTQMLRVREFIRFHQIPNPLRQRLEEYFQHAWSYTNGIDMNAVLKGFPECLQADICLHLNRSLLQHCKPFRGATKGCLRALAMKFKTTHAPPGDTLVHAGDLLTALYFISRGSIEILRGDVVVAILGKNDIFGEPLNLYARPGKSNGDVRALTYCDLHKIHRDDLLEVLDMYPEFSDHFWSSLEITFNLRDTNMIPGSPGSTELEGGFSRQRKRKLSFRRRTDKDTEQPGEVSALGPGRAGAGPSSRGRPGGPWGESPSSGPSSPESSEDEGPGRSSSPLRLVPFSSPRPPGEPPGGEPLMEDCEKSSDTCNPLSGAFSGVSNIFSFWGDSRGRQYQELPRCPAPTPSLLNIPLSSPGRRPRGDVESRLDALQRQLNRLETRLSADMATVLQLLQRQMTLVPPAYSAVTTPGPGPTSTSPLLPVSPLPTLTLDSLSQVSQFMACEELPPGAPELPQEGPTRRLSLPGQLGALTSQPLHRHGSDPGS

The assay has as its target human ether-à-go-go-related gene (hERG) potassium channel (human, UniProt Q12809). Briefly: primary screen, population patch clamp on CHO cells stably expressing hERG.
For the compound `CCOC(=O)c1cnc2ccc(C(=O)OC)cc2c1Nc1cccc(C(=O)O)c1.Cl`, the “hERG current change (%, negative = inhibition) at 1uM” value is 3.08%.

Turning to `O=C(OCCCOC(=O)c1ccccc1O)c1ccccc1O`, the “hERG current change (%, negative = inhibition) at 1uM” value was -0.173%.

Consider `COc1ccc(Nc2nc(N3CCOCC3)nc(N3CCOCC3)n2)cc1Cl`, for which the “hERG current change (%, negative = inhibition) at 1uM” value is reported as 10.7%.

In the case of `COc1ccc2[nH]c(=O)c(CN(Cc3nnnn3Cc3ccc(F)cc3)CC3CCCO3)cc2c1` (stereo not shown), the “hERG current change (%, negative = inhibition) at 1uM” value is -11.3%.

Consider `CCOc1ncccc1C(=O)OCC(=O)N(CC)c1ccccc1`, for which the “hERG current change (%, negative = inhibition) at 1uM” value is given as 0.813%.

`S=C(NCc1ccco1)N1CCN(c2nc(-c3ccccc3)cs2)CC1`: the “hERG current change (%, negative = inhibition) at 1uM” value is on record as 23.6%.

On to `C[C@@H]1NC(=O)c2cc([N+](=O)[O-])cc(I)c2NCCCC[C@@H](C(N)=O)NC(=O)[C@H](CC(N)=O)NC1=O`, for which the “hERG current change (%, negative = inhibition) at 1uM” value is recorded as 14.1%.

As to `CCCCOC(=O)C1=C(C)NC(=O)NC1c1ccc(OC)cc1` (stereo not shown), the “hERG current change (%, negative = inhibition) at 1uM” value amounted to 18%.

In the case of `Cc1c(C(=O)NN)[nH]c2ccc([N+](=O)[O-])cc12`, the “hERG current change (%, negative = inhibition) at 1uM” value was 19.2%.

As for `O=C1CCCc2c1nc(-c1cccc(Cl)c1)n2O`, the “hERG current change (%, negative = inhibition) at 1uM” value is listed as -1.13%.

`COc1ccccc1C(=O)Nc1ccnn1C1CCN(C(=O)c2ccoc2)CC1`: the “hERG current change (%, negative = inhibition) at 1uM” value is on record as -9.88%.

Regarding `COCCn1c(SCC(=O)N2CCCCC2)nc2c(c1=O)SCC2`, the “hERG current change (%, negative = inhibition) at 1uM” value came to 15.8%.

As for `N#C/C(=C\c1cccc(O)c1)C(=O)Nc1ccc2c(c1)OCCO2`, the “hERG current change (%, negative = inhibition) at 1uM” value is recorded as 9.51%.

Take `O=c1c(-c2ccc(Cl)cc2)cnc2n1CCS2`: the “hERG current change (%, negative = inhibition) at 1uM” value was 4.44%.

As for `CCN(CC)c1ccc(NS(=O)(=O)c2ccc(-c3ccc(=O)[nH]n3)o2)c(C)c1`, the “hERG current change (%, negative = inhibition) at 1uM” value is reported as 2.96%.

On to `CC1(C)S[C@@H]2[C@H](NC(=O)COc3ccccc3)C(=O)N2C1C(=O)OCc1ccccc1` (stereo partly shown), for which the “hERG current change (%, negative = inhibition) at 1uM” value is -5.33%.

Regarding `CCOC(=O)N1CCN(C(=O)CN(C)S(=O)(=O)c2ccc3c(c2)C(C)(C)C(=O)N3C)CC1`, the “hERG current change (%, negative = inhibition) at 1uM” value amounted to 12.7%.

Turning to `COC(=O)C1=C(Nc2ccc(C)cc2)C=C(C)C(C(=O)OC)C1c1ccc(OC)cc1` (stereo not shown), the “hERG current change (%, negative = inhibition) at 1uM” value was 16.9%.

With `CC(=O)N(C)c1nnc(-c2cnccn2)s1`, the “hERG current change (%, negative = inhibition) at 1uM” value turned out to be 12.1%.

In the case of `C=CCNC(=S)Nc1ccc(Br)cc1F`, the “hERG current change (%, negative = inhibition) at 1uM” value amounted to 7.48%.

Take `O=Cc1cn(CC(O)Cn2cc(C=O)c3ccccc32)c2ccccc12`: the “hERG current change (%, negative = inhibition) at 1uM” value is 8.31%.

For `COc1ccc(N(C(=O)CNC(=O)c2ccco2)C(C(=O)NC2CCCCC2)c2ccncc2)cc1` (stereo not shown), the “hERG current change (%, negative = inhibition) at 1uM” value stood at 16.5%.

On to `CC1Cc2ccccc2N1C(=O)CN(C)CC(=O)Nc1ccc(F)cc1` (stereo not shown), for which the “hERG current change (%, negative = inhibition) at 1uM” value is recorded as -3.44%.

In the case of `CC(C)OC(=O)c1cc2ccccc2oc1=O`, the “hERG current change (%, negative = inhibition) at 1uM” value is on record as 12.3%.

On to `COc1cccc(-c2cc(C(=O)NCc3ccc(Cl)cc3)no2)c1`, for which the “hERG current change (%, negative = inhibition) at 1uM” value was 8.67%.

Turning to `COc1ccc(N2CCN(C(=O)CNC(=O)c3ccc(C(C)(C)C)cc3)CC2)cc1`, the “hERG current change (%, negative = inhibition) at 1uM” value came to 8.22%.

For `Cc1cccc(CNC(=O)C2CCCN(c3nn4c(=O)cc(C)nc4s3)C2)c1` (stereo not shown), the “hERG current change (%, negative = inhibition) at 1uM” value turned out to be 15.5%.

Take `O=C(COC(=O)c1cccnc1Cl)c1ccccc1`: the “hERG current change (%, negative = inhibition) at 1uM” value came out at 7.98%.

`O=C1CCCC2=C1C(c1ccsc1)CC(=O)N2c1ccccc1F` (stereo not shown): the “hERG current change (%, negative = inhibition) at 1uM” value is given as 12.6%.

For the compound `Cc1ccc(N2CC(C(=O)NCc3ccco3)CC2=O)cc1Cl` (stereo not shown), the “hERG current change (%, negative = inhibition) at 1uM” value came to 12.9%.

On to `O=C(CSc1ccc2nnc(-c3ccc(Cl)cc3)n2n1)N1CCCc2ccccc21`, for which the “hERG current change (%, negative = inhibition) at 1uM” value was found to be 3.3%.

Consider `c1ccc2c3c([nH]c2c1)-c1[nH]ncc1CC3`, for which the “hERG current change (%, negative = inhibition) at 1uM” value was 13.4%.

Take `COc1ccc(C(=O)NCC(=O)OCC(=O)N2CCc3ccccc32)cc1`: the “hERG current change (%, negative = inhibition) at 1uM” value turned out to be 7.08%.

Take `COc1cccc(-c2nc(CS(=O)CC(=O)NC3CCCC3)c(C)o2)c1` (stereo not shown): the “hERG current change (%, negative = inhibition) at 1uM” value is reported as 12.2%.

As for `Cc1cccc(-c2nnc(NC(=O)c3ccc(Cl)cc3)o2)c1`, the “hERG current change (%, negative = inhibition) at 1uM” value is listed as -0.441%.

Take `CC1CCN(S(=O)(=O)c2ccc3c(c2)N(CC(=O)NCCCN2CCCC(C)C2)C(=O)CS3)CC1` (stereo not shown): the “hERG current change (%, negative = inhibition) at 1uM” value was 11.9%.

As to `Cn1nnnc1SCC(=O)c1c(N)n(C2CC2)c(=O)[nH]c1=O`, the “hERG current change (%, negative = inhibition) at 1uM” value is 26.4%.

In the case of `Cc1ccccc1C(=O)NC1CCCCCCC1`, the “hERG current change (%, negative = inhibition) at 1uM” value stood at 11.3%.

For `O=C(CSc1ncnc2c1cnn2CCO)Nc1cccc(C(F)(F)F)c1`, the “hERG current change (%, negative = inhibition) at 1uM” value is recorded as 7.29%.

Turning to `Cc1ccc(C)c(N2C(=O)CC(Cc3ccc(Br)cc3)C2=O)c1` (stereo not shown), the “hERG current change (%, negative = inhibition) at 1uM” value stood at 13.6%.

On to `O=C(NCCN1CCOCC1)c1cc(-c2cccc(Cl)c2)on1`, for which the “hERG current change (%, negative = inhibition) at 1uM” value came out at 8.97%.

On to `CCc1ccc(NC(=O)C(NS(=O)(=O)c2cccc3nsnc23)c2ccccc2)cc1` (stereo not shown), for which the “hERG current change (%, negative = inhibition) at 1uM” value was -0.0201%.

In the case of `O=C(O)CC/C(=N/NC(=O)c1cccs1)c1ccccc1`, the “hERG current change (%, negative = inhibition) at 1uM” value is on record as 12.6%.
